Reference: the antibiotic and cytotoxicity screens of Wong et al. (2023)
The list shows a part of the results.

tested on: HSkMC (human skeletal muscle cells); assay: cytotoxicity call (relative viability < 0.9); conditions: 10 µM

| SMILES | cytotoxicity call |
| --- | --- |
| C[C@@H]1CCCCO[C@H](CN(C)Cc2ccc3c(c2)OCO3)[C@H](C)CN([C@@H](C)CO)C(=O)c2cc(NC(=O)NC3CCCCC3)ccc2O1 | inactive |
| CO[C@H]1[C@@H](O)[C@H](n2ccc(N)nc2=O)O[C@@H]1CO | inactive |
| C=CC[C@@H](CC(=O)NCCO)C(=O)N[C@@H](COC(=O)[C@@H](CC=C)CC(=O)OC(C)(C)C)Cc1c[nH]c2ccccc12 | inactive |
| CCCNC(=O)C[C@@H]1CC[C@@H]2[C@H](COc3ccc(NC(=O)c4ccc5c(c4)OCO5)cc3C(=O)N2C)O1 | inactive |
| COCC#Cc1ccc2c(c1)O[C@H](CN(C)Cc1ccc(F)cc1)[C@H](C)CN([C@H](C)CO)S2(=O)=O | inactive |
| O=C(C[C@H]1CC[C@@H]2[C@H](COC[C@H](O)CN2S(=O)(=O)c2cccc(Cl)c2)O1)NCc1ccc2c(c1)OCO2 | inactive |
| C[C@@H]1CN([C@@H](C)CO)C(=O)c2cccc(NC(=O)c3cnccn3)c2O[C@@H]1CN(C)Cc1ccncc1 | inactive |
| Cn1cnc(S(=O)(=O)N2C[C@@H](O)COC[C@@H]3O[C@@H](CC(=O)NCc4cc(F)cc(F)c4)CC[C@H]32)c1 | inactive |
| C[C@@H]1CCCCO[C@@H](CN(C)C(=O)C2CCCCC2)[C@H](C)CN([C@@H](C)CO)C(=O)c2cc(NC(=O)Nc3ccc(C(F)(F)F)cc3)ccc2O1 | inactive |
| Cl.Cl.O=C(O)COCCN1CCN(C(c2ccccc2)c2ccc(Cl)cc2)CC1 (stereo not given) | inactive |
| C[C@H]1CN([C@@H](C)CO)C(=O)c2cccc(NC(=O)C3CC3)c2O[C@H]1CN(C)S(=O)(=O)c1ccc(Cl)cc1 | inactive |
| CCOC(=O)c1c(C)cc(O)c(C=O)c1O | inactive |
| CN1C(=O)c2cc(NC(=O)Nc3cccc(C#N)c3)ccc2OC[C@H]2O[C@@H](CC(=O)Nc3ccc4c(c3)CCC4)CC[C@@H]21 | inactive |
| COCC#Cc1ccc2c(c1)O[C@@H](CN(C)C(=O)COC)[C@@H](C)CN([C@@H](C)CO)S2(=O)=O | inactive |
| COc1ccc(S(=O)(=O)Nc2ccc3c(c2)CC(=O)N([C@@H](C)CO)C[C@H](C)[C@@H](CN(C)CC2CC2)O3)cc1 | inactive |
| CCOc1ccc(C(=O)Nc2ccc(S(=O)(=O)N3CCCC[C@@H]3c3cccnc3)cc2)cc1OCC | inactive |
| C[C@H](CO)N1C[C@H](C)[C@@H](CN(C)S(=O)(=O)c2cn(C)cn2)Oc2ccc(NC(=O)NC3CCCCC3)cc2CC1=O | inactive |
| N#C[C@H](c1ccccn1)N1CCOCC1 | inactive |
| C[C@@H]1CN([C@H](C)CO)C(=O)c2cc(NC(=O)Nc3ccccc3)ccc2O[C@@H]1CN(C)C(=O)Nc1ccc(C(F)(F)F)cc1 | inactive |
| C[C@H]1CN([C@@H](C)CO)C(=O)c2c(c3ccccc3n2C)-c2ccccc2CO[C@@H]1CN(C)C(=O)Nc1cccc(F)c1 | inactive |

| SMILES | cytotoxicity call |
| --- | --- |
| COc1ccc(NC(=O)N(C)C[C@@H]2OCCCC[C@H](C)Oc3ccc(NC(=O)Nc4ccc(C(F)(F)F)cc4)cc3C(=O)N([C@@H](C)CO)C[C@@H]2C)cc1 | inactive |
| COCC(=O)N1[C@@H]2CC[C@H]1COC2 | inactive |
| C[C@@H]1CN([C@H](C)CO)C(=O)c2cccc(NC(=O)Nc3ccc(C(F)(F)F)cc3)c2O[C@@H]1CN(C)C(=O)NC1CCCCC1 | active |
| O=C(C[C@H]1C=C[C@@H](NC(=O)c2cccnc2)[C@H](CO)O1)NCc1ccncn1 | inactive |
| C[C@@H](O)C#Cc1ccc2c(c1)O[C@@H](CN(C)C(=O)Cc1ccccn1)[C@@H](C)CN([C@@H](C)CO)S2(=O)=O | inactive |
| CO[C@H]1CN(C)C(=O)c2cc(NC(=O)CC(F)(F)F)ccc2OC[C@@H](C)N(S(=O)(=O)c2cn(C)cn2)C[C@@H]1C | inactive |
| O=C(CN1CCOCC1)N[C@@H]1CC[C@H](CCn2cc(C3CC3)nn2)O[C@@H]1CO | inactive |
| CC(C)(Oc1ccc(Cl)cc1)C(=O)O | inactive |
| CN1C(=O)c2cc(NC(=O)C3CCC3)ccc2OC[C@H]2O[C@H](CC(=O)NCCc3ccncc3)CC[C@@H]21 | inactive |
| C[C@H](CO)N1C[C@H](C)[C@@H](CN(C)C(=O)NC2CCCCC2)OCCCC[C@H](C)Oc2ccc(NC(=O)Cc3ccccc3)cc2C1=O | inactive |
| Cc1ccc(S(=O)(=O)Nc2cccc3c2O[C@@H](CN(C)CC2CC2)[C@@H](C)CN([C@@H](C)CO)C3=O)cc1 | inactive |
| O=C(C[C@@H]1C[C@@H]2c3cc(NC(=O)Cc4ccncc4)ccc3O[C@@H]2[C@H](CO)O1)NCc1cc(F)ccc1F | inactive |
| Cc1ccc(S(=O)(=O)Nc2ccc3c(c2)C(=O)N([C@H](C)CO)C[C@@H](C)[C@@H](CN(C)Cc2ccc4c(c2)OCO4)OCCCC[C@@H](C)O3)cc1 | inactive |
| N[C@@H](C(=O)N[C@@H]1C(=O)N2C(C(=O)O)=C(Cl)CC[C@H]12)c1ccccc1 | inactive |
| C[C@H]1CCCCO[C@@H](CN(C)C(=O)NC2CCCCC2)[C@@H](C)CN([C@@H](C)CO)C(=O)c2cc(NS(=O)(=O)c3cccs3)ccc2O1 | inactive |
| COc1ccc2c3c(n(c2c1)C)[C@@H](CO)N(C[C@]13CCN(CC1)Cc1cccc(c1)F)C(=O)Nc1ccc(cc1)F | inactive |
| Cc1ccc(S(=O)(=O)N(C)C[C@H]2OCCCC[C@H](C)Oc3ccc(NC(=O)c4ccccc4)cc3C(=O)N([C@@H](C)CO)C[C@H]2C)cc1 | inactive |
| C[C@@H]1CN([C@@H](C)CO)C(=O)Cc2cc(NS(=O)(=O)c3ccc(Cl)cc3)ccc2O[C@H]1CN(C)C(=O)Nc1cccc2ccccc12 | inactive |
| C[C@H](CO)N1C[C@H](C)[C@@H](CN(C)S(=O)(=O)c2cn(C)cn2)Oc2ccc(NS(=O)(=O)c3cccs3)cc2CC1=O | inactive |
| C[C@H]1CN([C@@H](C)CO)C(=O)c2ccccc2-c2ccccc2CO[C@@H]1CN(C)C(=O)Nc1cccc(Cl)c1Cl | inactive |
